A compilation of properties of binary mixtures (doi:10.1021/ie8009878)
Some of these densities may be calculated back from excess volumes.

Assay: xn = mol fraction of the nth substance listed
Conditions: 101 kPa

CCCC[n+]1ccccc1C.F[B-](F)(F)F + CCCO
Conditions | mass density [kg/m3]
298.15 K, x2 = 0.1446 | 1178.4
298.15 K, x2 = 0.2848 | 1150.4
298.15 K, x2 = 0.3627 | 1132.2
298.15 K, x2 = 0.4723 | 1102.2
318.15 K, x1 = 0.0191 | 804
318.15 K, x2 = 0.0615 | 1179.2
318.15 K, x2 = 0.1135 | 1170.8
318.15 K, x2 = 0.1856 | 1157.9
318.15 K, x2 = 0.2171 | 1152.3
318.15 K, x2 = 0.2445 | 1147.1
318.15 K, x2 = 0.388 | 1113.7
318.15 K, x2 = 0.4615 | 1093.2
318.15 K, x2 = 0.58 | 1053.6
318.15 K, x2 = 0.7302 | 987.5
318.15 K, x2 = 0.9638 | 821.6

CCCC[n+]1ccccc1C.F[B-](F)(F)F + CCCCO
318.15 K
Conditions | mass density [kg/m3]
x2 = 0.1057 | 1168.6
x2 = 0.2855 | 1128.5
x2 = 0.3872 | 1101.2
x2 = 0.4423 | 1084.5

CCCC[n+]1ccccc1C.F[B-](F)(F)F + CO
Conditions | mass density [kg/m3]
298.15 K, x2 = 0.1439 | 1189.1
298.15 K, x2 = 0.2007 | 1182.9
298.15 K, x2 = 0.2942 | 1171.4
298.15 K, x2 = 0.448 | 1146.3
298.15 K, x2 = 0.4903 | 1138
298.15 K, x2 = 0.6951 | 1077.5
298.15 K, x2 = 0.7904 | 1030.6
298.15 K, x2 = 0.8491 | 989.6
298.15 K, x2 = 0.9468 | 884
318.15 K, x2 = 0.134 | 1176.9
318.15 K, x2 = 0.2144 | 1168.1
318.15 K, x2 = 0.4642 | 1130.8
318.15 K, x2 = 0.5264 | 1117.2
318.15 K, x2 = 0.585 | 1102.2
318.15 K, x2 = 0.669 | 1075
318.15 K, x2 = 0.7765 | 1025
318.15 K, x2 = 0.8507 | 972.7
318.15 K, x2 = 0.9194 | 902.5
318.15 K, x2 = 0.9656 | 836.1

CCCC[n+]1ccccc1C.F[B-](F)(F)F + O
Conditions | mass density [kg/m3]
298.15 K, x2 = 0.0741 | 1199.9
298.15 K, x2 = 0.1008 | 1199
298.15 K, x2 = 0.15 | 1197.3
298.15 K, x2 = 0.2898 | 1191.7
298.15 K, x2 = 0.357 | 1188.3
298.15 K, x2 = 0.427 | 1184.3
298.15 K, x2 = 0.4888 | 1180.1
298.15 K, x2 = 0.6614 | 1163.5
298.15 K, x2 = 0.7167 | 1155.5
298.15 K, x2 = 0.8002 | 1138.5
298.15 K, x2 = 0.8483 | 1124.1
298.15 K, x2 = 0.899 | 1102.2
298.15 K, x2 = 0.9498 | 1066.3
318.15 K, x2 = 0.0694 | 1186.7
318.15 K, x2 = 0.2203 | 1181
318.15 K, x2 = 0.2925 | 1177.9
318.15 K, x2 = 0.3514 | 1175.1
318.15 K, x2 = 0.6173 | 1154.5
318.15 K, x2 = 0.7059 | 1142.8
318.15 K, x2 = 0.7951 | 1125.1
318.15 K, x2 = 0.8508 | 1108.6
318.15 K, x2 = 0.8999 | 1087.8
318.15 K, x2 = 0.9503 | 1053.7

CCCC[n+]1ccccc1C.F[B-](F)(F)F + CCO
Conditions | mass density [kg/m3]
298.15 K, x2 = 0.1755 | 1185.5
298.15 K, x2 = 0.2602 | 1175.5
298.15 K, x2 = 0.3754 | 1158.5
298.15 K, x2 = 0.614 | 1104.3
298.15 K, x2 = 0.7324 | 1058.8
298.15 K, x2 = 0.875 | 963.6
298.15 K, x2 = 0.9453 | 882.7
318.15 K, x2 = 0.1335 | 1171.1
318.15 K, x2 = 0.2173 | 1158.7
318.15 K, x2 = 0.2896 | 1145.8
318.15 K, x2 = 0.3501 | 1134.3
318.15 K, x2 = 0.4186 | 1119.4
318.15 K, x2 = 0.5603 | 1079.7
318.15 K, x2 = 0.9473 | 839
